The name of at least one read-out is uncertain.
System: GLP-1
Assay: In vivo mouse GLP-1 study (C57BL/6NTac mice, sitagliptin pre-dosed)
Conditions: active GLP-1, fold change over vehicle (sitagliptin only), 10 mg/kg oral, 4 h post-dose

Structure (SMILES) | GLP-1 Fold Increase
N#Cc1ccc(CCNC(=O)[C@@H]2CCCN2c2cc(N3CCC(CCCC(=O)NCCS(=O)(=O)O)CC3)cc(C(F)(F)F)n2)cc1 [Compound 199, (S)-2-(4-(1-(2-(2-((4-cyanophenethyl)carbamoyl)pyrrolidin-1-yl)-6-(trifluoromethyl)pyridin-4-yl)piperidin-4-yl)butanamido)ethanesulfonic acid] | 3.8
N#Cc1ccc(CCNC(=O)[C@@H]2CCCN2c2cc(N3CCC(CCNC(=N)N)CC3)nc(C(F)(F)F)n2)cc1 [Compound 126, (S)—N-(4-cyanophenethyl)-1-(6-(4-(2-guanidinoethyl)piperidin-1-yl)-2-(trifluoromethyl)pyrimidin-4-yl)pyrrolidine-2-carboxamide] | 1.7
N#Cc1ccc(CCNC(=O)[C@@H]2CCCN2c2cc(N3CCC(CCCC(=O)NCCCS(=O)(=O)O)CC3)nc(C(F)(F)F)n2)cc1 [Compound 63, (S)-3-(4-(1-(6-(2-((4-cyanophenethyl)carbamoyl)pyrrolidin-1-yl)-2-(trifluoromethyl)pyrimidin-4-yl)-piperidin-4-yl)butanamido)propane-1-sulfonic acid] | 2.3
N#Cc1ccc(CCNC(=O)[C@@H]2CCCN2c2cc(N3CCC(CCCC(=O)NCCS(N)(=O)=O)CC3)nc(C(F)(F)F)n2)cc1 [Compound 62, (S)-N-(4-cyanophenethyl)-1-(6-(4-(4-oxo-4-((2-sulfamoylethyl)amino)butyl)piperidin-1-yl)-2-(trifluoromethyl)pyrimidin-4-yl)pyrrolidine-2-carboxamide] | 1.5
CS(=O)(=O)NCCOCCNC(=O)NCCC1CCN(c2cc(N3CC[C@H]3C(=O)NCCc3ccc(C#N)cc3)nc(C(F)(F)F)n2)CC1 [Compound 292, (S)-N-(4-cyanophenethyl)-1-(6-(4-(2-(3-(2-(2-(methylsulfonylamino)-ethoxy)ethyl)ureido)ethyl)piperidin-1-yl)-2-(trifluoromethyl)pyrimidin-4-yl)azetidine-2-carboxamide] | 0.9
CS(=O)(=O)NCCNC(=O)CCCC1CCN(c2cc(N3CCC[C@H]3C(=O)NCCc3ccc(C#N)cc3)nc(C(F)(F)F)n2)CC1 [Compound 93] | 1.3
N#Cc1ccc(CCNC(=O)[C@@H]2CCCN2c2cc(N3CCC(CCC(=O)NCCS(=O)(=O)O)CC3)nc(C(F)(F)F)n2)cc1 [Compound 56, (S)-2-(3-(1-(6-(2-((4-cyanophenethyl)carbamoyl)pyrrolidin-1-yl)-2-(trifluoromethyl)pyrimidin-4-yl)piperidin-4-yl)propanamido)ethanesulfonic acid] | 4.1
N#Cc1ccc(CCNC(=O)[C@@H]2CCN2c2cc(N3CCC(CCCC(=O)NCCNC(=N)N)CC3)nc(C(F)(F)F)n2)cc1 [Compound 282, (S)—N-(4-cyanophenethyl)-1-(6-(4-(4-((2-guanidinoethyl)amino)-4-oxobutyl)piperidin-1-yl)-2-(trifluoromethyl)pyrimidin-4-yl)azetidine-2-carboxamide] | 1.5
N#Cc1ccc(CCNC(=O)[C@@H]2CCCN2c2cc(N3CCC(CCNc4c(NCCS(=O)(=O)O)c(=O)c4=O)CC3)nc(C(F)(F)F)n2)cc1 [Compound 367, (S)-2-((2-((2-(1-(6-(2-((4-cyanophenethyl)carbamoyl)pyrrolidin-1-yl)-2-(trifluoromethyl)pyrimidin-4-yl)piperidin-4-yl)ethyl)amino)-3,4-dioxocyclobut-1-en-1-yl)amino)ethanesulfonic acid] | 3.5
N#Cc1ccc(CCNC(=O)[C@@H]2CCN2c2cc(N3CCC(CCNC(=O)NCCOCCNC(=O)NCCC(=O)O)CC3)nc(C(F)(F)F)n2)cc1 [Compound 360, (S)-1-(1-(6-(2-((4-cyanophenethyl)carbamoyl)azetidin-1-yl)-2-(trifluoromethyl)pyrimidin-4-yl)piperidin-4-yl)-4,12-dioxo-8-oxa-3,5,11,13-tetraazahexadecan-16-oic acid] | 3.6
N#Cc1ccc(CCNC(=O)[C@@H]2CCCN2c2cc(N3CCC(CCCC(=O)NCS(=O)(=O)O)CC3)nc(C(F)(F)F)n2)cc1 [Compound 66, (S)-(4-(1-(6-(2-((4-cyanophenethyl)carbamoyl)pyrrolidin-1-yl)-2-(trifluoromethyl)pyrimidin-4-yl)piperidin-4-yl)butanamido)-methanesulfonic acid] | 3.8
N#Cc1ccc(CCNC(=O)[C@@H]2CCCN2c2cc(N3CCC(CCCC(=O)NCCCC[C@H](NC(=N)N)C(=O)O)CC3)nc(C(F)(F)F)n2)cc1 [Compound 129, (S)-6-(4-(1-(6-((S)-2-((4-cyanophenethyl)carbamoyl)pyrrolidin-1-yl)-2-(trifluoromethyl)pyrimidin-4-yl)piperidin-4-yl)butanamido)-2-guanidinohexanoic acid] | 1.1
O=C(CCCC1CCN(c2cc(N3CCC[C@H]3C(=O)NCCc3ccc(C(F)(F)F)cc3)nc(C(F)(F)F)n2)CC1)NCCS(=O)(=O)O [Compound 58, (S)-2-(4-(1-(2-(trifluoromethyl)-6-(2-((4-(trifluoromethyl)phenethyl)-carbamoyl)-pyrrolidin-1-yl)-pyrimidin-4-yl)piperidin-4-yl)butanamido)ethanesulfonic acid] | 3.1
N#Cc1ccc(CCNC(=O)[C@@H]2CCCN2c2cc(N3CCC(CCCC(=O)NCCS(=O)(=O)O)CC3)nc(C(F)(F)F)n2)cc1 [Compound 61, (S)-2-(4-(1-(6-(2-((4-cyanophenethyl)carbamoyl)pyrrolidin-1-yl)-2-(trifluoromethyl)pyrimidin-4-yl)-piperidin-4-yl)butanamido)ethanesulfonic acid] | 3.6
N#Cc1ccc(CCNC(=O)[C@@H]2CCCN2c2cc(-c3ccc(CCC(=O)NCS(=O)(=O)O)cc3)cc(C(F)(F)F)n2)cc1 [Compound 206, (S)-(3-(4-(2-(2-((4-cyanophenethyl)carbamoyl)pyrrolidin-1-yl)-6-(trifluoromethyl)pyridin-4-yl)phenyl)propanamido)methanesulfonic acid] | 2.6
N#Cc1ccc(CCNC(=O)[C@@H]2CCN2c2cc(N3CCC(CCNC(=O)NCCOCCNC(=N)N)CC3)nc(C(F)(F)F)n2)cc1 [Compound 287, (S)-1-(6-(4-(1-amino-1-imino-9-oxo-5-oxa-2,8,10-triazadodecan-12-yl)piperidin-1-yl)-2-(trifluoromethyl)pyrimidin-4-yl)-N-(4-cyanophenethyl)azetidine-2-carboxamid] | 1.5
N#Cc1ccc(CCNC(=O)[C@@H]2CCN2c2cc(N3CCC(CCCC(=O)NCCS(=O)(=O)O)CC3)nc(C(F)(F)F)n2)cc1 [Compound 249, (S)-2-(4-(1-(6-(2-((4-cyanophenethyl)carbamoyl)azetidin-1-yl)-2-(trifluoromethyl)pyrimidin-4-yl)piperidin-4-yl)butanamido)ethanesulfonic acid] | 4.3
N#Cc1ccc(CCNC(=O)[C@@H]2CCN2c2cc(N3CCC(CCCC(=O)NCS(=O)(=O)O)CC3)nc(C(F)(F)F)n2)cc1 [Compound 250, (S)-(4-(1-(6-(2-((4-cyanophenethyl)carbamoyl)azetidin-1-yl)-2-(trifluoromethyl)pyrimidin-4-yl)piperidin-4-yl)butanamido)methanesulfonic acid] | 2.7
N#Cc1ccc(CCNC(=O)[C@@H]2CCN2c2cc(N3CCC(CCNC(=O)NCCS(=O)(=O)O)CC3)nc(C(F)(F)F)n2)cc1 [Compound 271, (S)-2-(3-(2-(1-(6-(2-((4-cyanophenethyl)carbamoyl)azetidin-1-yl)-2-(trifluoromethyl)pyrimidin-4-yl)piperidin-4-yl)ethyl)ureido)-ethanesulfonic acid] | 2.7
N#Cc1ccc(CCNC(=O)[C@@H]2CCCN2c2cc(N3CCC(CCCC(=O)N[C@@H](CCCNC(=N)N)C(=O)N[C@@H](CCCNC(=N)N)C(=O)O)CC3)cc(C(F)(F)F)n2)cc1 [Compound 202, (S)-2-((S)-2-(4-(1-(2-((S)-2-((4-cyanophenethyl)carbamoyl)pyrrolidin-1-yl)-6-(trifluoromethyl)pyridin-4-yl)piperidin-4-yl)butanamido)-5-guanidinopentanamido)-5-guanidinopentanoic acid] | 1.2
N[C@@H](CS(=O)(=O)O)C(=O)NCCC1CCN(c2cc(N3CC[C@H]3C(=O)NCCc3ccc(C(F)(F)F)cc3)nc(C(F)(F)F)n2)CC1 [Compound 278, (R)-2-amino-3-oxo-3-((2-(1-(2-(trifluoromethyl)-6-((S)-2-((4-(trifluoromethyl)-phenethyl)carbamoyl)azetidin-1-yl)pyrimidin-4-yl)piperidin-4-yl)ethyl)amino)-propane-1-sulfonic acid] | 2.4
N#Cc1ccc(CCNC(=O)[C@@H]2CCN2c2cc(N3CCC(CCNC(=O)NCCNC(=N)N)CC3)nc(C(F)(F)F)n2)cc1 [Compound 286, (S)-N-(4-cyanophenethyl)-1-(6-(4-(2-(3-(2-guanidinoethyl)-ureido)ethyl)piperidin-1-yl)-2-(trifluoromethyl)pyrimidin-4-yl)azetidine-2-carboxamide] | 2.3
N#Cc1ccc(CCNC(=O)[C@@H]2CCN2c2cc(N3CCC(CCCC(=O)NCCCCNC(=N)N)CC3)nc(C(F)(F)F)n2)cc1 [Compound 283, (S)-N-(4-cyanophenethyl)-1-(6-(4-(4-((4-guanidinobutyl)amino)-4-oxobutyl)piperidin-1-yl)-2-(trifluoromethyl)pyrimidin-4-yl)azetidine-2-carboxamide] | 1.5
N#Cc1ccc(CCNC(=O)[C@@H]2CCN2c2cc(N3CCC(CCNC(=O)NCCS(N)(=O)=O)CC3)nc(C(F)(F)F)n2)cc1 [Compound 269, (S)—N-(4-cyanophenethyl)-1-(6-(4-(2-(3-(2-sulfamoylethyl)ureido)ethyl)piperidin-1-yl)-2-(trifluoromethyl)pyrimidin-4-yl)azetidine-2-carboxamide] | 1.8

Source: patent US10654834B2 (Venenum Biodesign, LLC, priority 2016, dated 2020)
